The whole screen tested about 360,000 compounds, of which about 16,000 (4.4%) were called active. This list was built around the results that the source calls inconclusive (neither active nor inactive); the mix of calls is not that of the screen. Calls follow the shape of the dose curve; as a rule, active = well fitted inhibition curve with a large enough effect; inconclusive = small, poorly fitted or top-dose-only effect; inactive = no such curve, though single readings can be large or run the other way. A potency beside an inconclusive call is a rough fit, not a confirmed value. A structure can be active in one record and inactive in another.
These compounds were tested against Bromodomain adjacent to zinc finger domain protein 2B (Homo sapiens) (UniProt Q9UIF8) (assay: qHTS Assay for Inhibitors of BAZ2B). Details: AlphaScreen BAZ2B-H3K14Ac peptide displacement; series mostly up to 114 µM.
Sequence of UniProt Q9UIF8 (Q9UIF8 whole entry, looked up, the tested form may be a part): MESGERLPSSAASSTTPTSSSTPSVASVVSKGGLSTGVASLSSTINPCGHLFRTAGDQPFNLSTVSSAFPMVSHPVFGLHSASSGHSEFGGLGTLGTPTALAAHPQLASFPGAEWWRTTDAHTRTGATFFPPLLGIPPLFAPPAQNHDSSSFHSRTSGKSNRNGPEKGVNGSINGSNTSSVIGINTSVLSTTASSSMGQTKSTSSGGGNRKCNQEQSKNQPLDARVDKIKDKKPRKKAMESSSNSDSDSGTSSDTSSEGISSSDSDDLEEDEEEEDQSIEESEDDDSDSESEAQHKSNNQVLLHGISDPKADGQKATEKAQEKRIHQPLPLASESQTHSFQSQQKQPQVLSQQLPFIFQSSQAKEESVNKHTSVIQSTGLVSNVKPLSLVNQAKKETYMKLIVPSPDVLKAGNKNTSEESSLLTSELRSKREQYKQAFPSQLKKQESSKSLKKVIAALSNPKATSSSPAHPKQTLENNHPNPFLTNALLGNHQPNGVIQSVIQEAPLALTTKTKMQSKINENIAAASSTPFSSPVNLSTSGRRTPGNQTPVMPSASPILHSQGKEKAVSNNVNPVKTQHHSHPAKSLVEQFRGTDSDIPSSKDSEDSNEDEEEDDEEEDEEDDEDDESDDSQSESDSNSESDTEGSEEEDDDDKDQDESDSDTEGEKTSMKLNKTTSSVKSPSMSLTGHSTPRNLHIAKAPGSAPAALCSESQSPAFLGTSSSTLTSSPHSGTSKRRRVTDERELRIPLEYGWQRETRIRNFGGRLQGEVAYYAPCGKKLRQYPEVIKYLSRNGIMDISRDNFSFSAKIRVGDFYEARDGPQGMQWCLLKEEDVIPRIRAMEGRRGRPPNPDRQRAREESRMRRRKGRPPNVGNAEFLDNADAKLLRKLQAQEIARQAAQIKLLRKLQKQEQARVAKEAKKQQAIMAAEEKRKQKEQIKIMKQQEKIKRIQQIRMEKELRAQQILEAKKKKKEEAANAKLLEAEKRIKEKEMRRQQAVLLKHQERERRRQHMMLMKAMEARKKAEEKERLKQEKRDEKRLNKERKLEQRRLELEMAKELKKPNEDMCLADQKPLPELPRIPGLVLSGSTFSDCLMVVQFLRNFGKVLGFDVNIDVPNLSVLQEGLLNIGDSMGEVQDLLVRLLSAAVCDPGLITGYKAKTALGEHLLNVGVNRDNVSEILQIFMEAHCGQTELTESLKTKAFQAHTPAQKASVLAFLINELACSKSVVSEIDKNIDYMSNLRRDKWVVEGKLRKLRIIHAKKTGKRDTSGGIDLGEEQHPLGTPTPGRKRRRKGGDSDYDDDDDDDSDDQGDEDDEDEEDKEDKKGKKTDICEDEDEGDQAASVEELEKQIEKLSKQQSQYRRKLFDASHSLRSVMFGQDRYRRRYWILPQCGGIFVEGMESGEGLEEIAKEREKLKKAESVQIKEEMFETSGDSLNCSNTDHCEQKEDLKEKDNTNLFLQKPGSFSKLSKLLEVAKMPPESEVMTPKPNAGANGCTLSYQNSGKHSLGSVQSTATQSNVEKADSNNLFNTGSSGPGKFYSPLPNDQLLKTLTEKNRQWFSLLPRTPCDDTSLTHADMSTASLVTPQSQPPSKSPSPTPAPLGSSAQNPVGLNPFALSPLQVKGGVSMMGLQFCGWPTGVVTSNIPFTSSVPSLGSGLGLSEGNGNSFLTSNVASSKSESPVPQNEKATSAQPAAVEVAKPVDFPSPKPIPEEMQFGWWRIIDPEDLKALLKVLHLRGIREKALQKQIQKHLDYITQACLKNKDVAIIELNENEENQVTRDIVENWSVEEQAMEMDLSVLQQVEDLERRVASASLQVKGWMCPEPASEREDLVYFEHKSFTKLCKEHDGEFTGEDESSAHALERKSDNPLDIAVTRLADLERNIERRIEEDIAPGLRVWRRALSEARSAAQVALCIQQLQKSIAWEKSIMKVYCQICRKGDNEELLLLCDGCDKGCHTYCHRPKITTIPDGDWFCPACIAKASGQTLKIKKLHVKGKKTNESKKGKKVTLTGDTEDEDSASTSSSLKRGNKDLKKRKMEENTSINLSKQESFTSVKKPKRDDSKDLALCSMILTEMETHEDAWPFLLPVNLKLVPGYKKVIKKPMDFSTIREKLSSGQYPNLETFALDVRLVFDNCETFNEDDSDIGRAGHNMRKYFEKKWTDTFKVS
Summary of the method: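 Inhibition is scored as reduced AlphaScreen emission. The BAZ2B/b-H3(5-23)K14Ac complex (50 nM each) in PBS pH 7.4, 0.01% Tween-20 meets compound (up to 110 uM) for 30 min at RT before bead addition.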
`CC(C)c1c(C(=O)N/N=C2\CCc3ccccc32)nnn1-c1nonc1N` was tested, and the Potency was “inactive”. In the case of `CC(=O)Nc1nc(C)c(C(C)=O)s1`, the Potency is reported as “inactive”. For `Cc1ccc(CSCC(=O)N/N=C/c2ccc(OCC(=O)Nc3ccc(C)cc3)cc2)cc1`, the Potency was inconclusive: 79.4 µM [inhibitor, partial curve]. With `O=C(/C=C1\NCC2c3ccccc3CCN2C1=O)c1ccccc1` (stereo unspecified) the Potency was inconclusive: 100 µM [inhibitor, single point]. In the case of `CC(=O)NNC(=O)CN1C(=O)/C(=C/c2ccccc2)SC1=S`, the Potency is reported as “inactive”. With `Cc1ccc(-c2csc(NC(=O)C[n+]3cc(-c4ccccc4)n4c3CCC4)n2)cc1` the Potency was inconclusive: 79.4 µM [inhibitor, single point]. For `COC(=O)c1cccc(-n2c(C)cc(C=O)c2C)c1`, the Potency was inconclusive: 100 µM [inhibitor, single point]. In the case of `CCN(CCCNC(=O)c1cc2c(=O)[nH]c3ccc(C)cc3c2s1)Cc1ccccc1`, the Potency is reported as inconclusive: 35.5 µM [inhibitor, partial curve]. For `NC[C@H](O)c1ccc(O)c(O)c1`, the Potency was inconclusive: 89.1 µM [inhibitor, single point]. With `O=c1cc(C(Cl)(Cl)Cl)oc2c1ccc1ccccc12` the Potency was “inactive”. `CCc1ccc(NS(=O)(=O)c2cccc3nonc23)cc1` was tested, and the Potency was inconclusive: 70.8 µM [inhibitor, single point]. In the case of `COc1ccc(Cl)cc1NC(=O)c1nc(S(C)(=O)=O)ncc1N(Cc1ccc(C)cc1)Cc1ccco1`, the Potency is reported as inconclusive: 89.1 µM [inhibitor, single point]. In the case of `COc1ccc(C(C#N)N2CCC(c3ccccc3)=N2)cc1OC` (stereo unspecified), the Potency is reported as “inactive”. With `CCOC(=O)CCCCC(=O)c1[nH]c(=O)[nH]c1CSc1nc(C)cc(=O)[nH]1` the Potency was active: 50.1 µM. `CCN1CCN(c2cc(N3CCN(C(=O)c4ccco4)CC3)c3c4c(onc24)-c2ccccc2C3=O)CC1` was tested, and the Potency was active: 11.2 µM. With `O=C(Cc1cccs1)N1CCC(c2nc3c(nnn3Cc3ccccc3)c(=O)[nH]2)CC1` the Potency was inconclusive: 89.1 µM [inhibitor, single point]. With `O=C(CSc1nnc(NC(=O)Cc2ccccc2)s1)NCc1ccco1` the Potency was inconclusive: 79.4 µM [inhibitor, single point]. In the case of `Fc1cccc(CSc2ccc(-c3ccc4c(c3)OCO4)nn2)c1`, the Potency is reported as “inactive”. With `CCN1/C(=C/c2ccc3ccccc3[n+]2CCCS(=O)(=O)[O-])C=Cc2cc(C)ccc21` the Potency was active: 44.7 µM. `COc1cccc(N2CCN(c3ncc4c(n3)CCN(Cc3ccc(Br)cc3)C4)CC2)c1` was tested, and the Potency was active: 22.4 µM. In the case of `COc1ccc(CN2CCN(Cc3cccc(Oc4ccccc4)c3)CC2)c(OC)c1OC`, the Potency is reported as active: 20 µM. `O=C(Nc1ccccc1C(=O)N1CCCCCC1)c1ccc(Cl)cc1` was tested, and the Potency was “inactive”. In the case of `CN(Cc1ccc(F)cc1)C(=O)c1ccc(NS(=O)(=O)c2ccccc2)cc1`, the Potency is reported as “inactive”. For `COc1ccc(-c2csc(NC(=O)Cc3cccc4ccccc34)c2C(=O)O)cc1`, the Potency was inconclusive: 56.2 µM [inhibitor, partial curve]. `CCS(=O)(=O)C1=NN2C(=N)/C(=C\c3ccc(OC(=O)c4ccco4)c(Br)c3)C(=O)N=C2S1` was tested, and the Potency was active: 50.1 µM. With `COc1ccc(C(=O)NCc2ccc3c(c2)cc(C)n3C)cc1OC` the Potency was inconclusive: 35.5 µM [inhibitor, partial curve]. For `Cc1cc(/C=N/N2CCN(C)CC2)c(C)n1-c1ccccc1F`, the Potency was inconclusive: 79.4 µM [inhibitor, single point]. For `CCCN(CC1CCCO1)C(=O)CCc1nnc(CCc2ccc(OC)cc2)o1` (stereo unspecified), the Potency was “inactive”. For `CCCC(C(=O)O)N1C(=O)/C(=C/c2cccn2C)SC1=S` (stereo unspecified), the Potency was inconclusive: 50.1 µM [inhibitor, partial curve]. `CN(Cc1ccco1)C(=O)CSc1nc(C2CC2)n(-c2ccccc2)n1` was tested, and the Potency was inconclusive: 50.1 µM [inhibitor, partial curve]. With `O=C(NCCCN1CCOCC1)c1ccc2c(c1)N(Cc1ccccc1)CCS2` the Potency was inconclusive: 70.8 µM [inhibitor, partial curve]. With `COC(=O)NC1c2ccccc2Oc2ccc(C)cc21` (stereo unspecified) the Potency was “inactive”. `CNc1nc(N/N=C/c2ccc([N+](=O)[O-])cc2)nc(Nc2ccccc2)n1` was tested, and the Potency was inconclusive: 22.4 µM [inhibitor, full curve, poor fit]. `CCC(C)NS(=O)(=O)c1ccc(OCC(=O)NCc2ccco2)cc1` (stereo unspecified) was tested, and the Potency was inconclusive: 79.4 µM [inhibitor, single point]. In the case of `COC(=O)c1cc(=O)n(CCc2ccc(OC)c(OC)c2)c(=Nc2ccc(F)c(Cl)c2)s1`, the Potency is reported as inconclusive: 10 µM [inhibitor, full curve]. For `Cc1ccccc1NC(=S)NCc1cccn1C`, the Potency was inconclusive: 79.4 µM [inhibitor, single point]. For `CCCCCCSc1ccc([C@@H]2[C@H]3C(=O)N(CC)C(=O)[C@H]3[C@]3(C(=O)OC)CCCN23)cc1`, the Potency was inconclusive: 89.1 µM [inhibitor, single point]. `COc1ccc(O)c(C(=O)c2cnc3onc(C(C)C)c3c2)c1` was tested, and the Potency was inconclusive: 50.1 µM [inhibitor, partial curve]. For `CCOc1cc(/C=C2/C(=N)N3C(=NC2=O)SN=C3S(C)(=O)=O)ccc1OC(=O)c1ccco1`, the Potency was active: 50.1 µM. In the case of `COc1ccccc1/C=C/c1nc(C#N)c(NC(C)c2ccccc2)o1` (stereo unspecified), the Potency is reported as inconclusive: 22.4 µM [inhibitor, full curve]. With `CCOc1ccc(NC(=O)c2cnn3c(C(F)F)cc(-c4ccc(C)cc4)nc23)cc1` the Potency was inconclusive: 89.1 µM [inhibitor, single point]. With `O=C(COC(=O)C1Cc2ccccc2CN1C(=O)c1ccccc1Cl)Nc1ccc(N2CCOCC2)cc1` (stereo unspecified) the Potency was inconclusive: 44.7 µM [inhibitor, partial curve]. For `CCN(C(=O)Cc1c(C(=O)O)[nH]c2ccccc12)c1cc(OC)ccc1OC`, the Potency was inconclusive: 89.1 µM [inhibitor, single point]. With `COCCn1c(N)c(N(Cc2ccccc2)C(=O)c2oc3ccccc3c2C)c(=O)[nH]c1=O` the Potency was inconclusive: 1.26 µM [inhibitor, full curve, poor fit]. `O=C(COC(=O)c1cc([N+](=O)[O-])ccc1N1CCOCC1)Nc1c(Cl)cccc1Cl` was tested, and the Potency was inconclusive: 100 µM [inhibitor, single point]. For `Cc1cccc(OCC(=O)Nc2ccncc2)c1C`, the Potency was “inactive”. With `CCCCC1=CC2=C(c3ccco3)C(=O)C(C)(OC(=O)c3ccc(OC)cc3)C(=O)C2=CN1c1ccc(OC)cc1` (stereo unspecified) the Potency was inconclusive: 5.01 µM [inhibitor, partial curve, poor fit]. In the case of `CC(=O)c1cc2ccccc2oc1=O`, the Potency is reported as “inactive”. For `CCOC(=O)c1c(S(=O)(=O)NCC(=O)N2CCN(c3ccc(OC)cc3)CC2)c(C)n(C)c1C`, the Potency was inconclusive: 79.4 µM [inhibitor, single point]. In the case of `O=C(O)c1cccnc1SC1CC(=O)N(Cc2ccccc2)C1=O` (stereo unspecified), the Potency is reported as “inactive”. With `CC(=O)N1CCc2cc(S(=O)(=O)NC(Cc3ccccc3)C(=O)Nc3cc(C)ccn3)ccc21` (stereo unspecified) the Potency was inconclusive: 89.1 µM [inhibitor, single point]. For `N#C/C(=C\c1ccc(OC(=O)c2ccc(Br)s2)cc1)c1nc2ccccc2[nH]1`, the Potency was inconclusive: 89.1 µM [inhibitor, single point]. `CCCC(=O)NC(c1ccc(N(C)C)cc1)c1c(O)ccc2ccccc12` (stereo unspecified) was tested, and the Potency was active: 17.8 µM. In the case of `CCCCCCC1CC(C)(C(=O)CNc2nncs2)OC1=O` (stereo unspecified), the Potency is reported as “inactive”. In the case of `CC(=O)Nc1ccc(N(C(=O)CNC(=O)c2ccco2)C(C(=O)NCc2ccco2)c2ccccc2F)cc1` (stereo unspecified), the Potency is reported as inconclusive: 28.2 µM [inhibitor, partial curve, poor fit]. With `COc1cc(CNc2ccc(N3CCOCC3)cc2)cc(Br)c1OC` the Potency was active: 39.8 µM. In the case of `CC(CNC(=O)c1ccc(Cn2c(SCc3ccccc3)nc3cccnc32)cc1)c1ccccc1` (stereo unspecified), the Potency is reported as “inactive”. In the case of `O=C(CCCN1C(=O)/C(=C\c2cccc(Br)c2)SC1=S)Nc1cccnc1`, the Potency is reported as inconclusive: 44.7 µM [inhibitor, partial curve, poor fit]. In the case of `COCCCNS(=O)(=O)c1ccc2[nH]c(=O)[nH]c2c1`, the Potency is reported as “inactive”. With `Cc1cccc(NS(=O)(=O)c2nnc(NC(=O)C3CCCCC3)s2)c1` the Potency was active: 6.31 µM. With `COc1ccc(CCNC(=O)CSc2ccccn2)cc1OC` the Potency was inconclusive: 89.1 µM [inhibitor, single point]. For `CC1CCN(C(=O)c2ccc(S(=O)(=O)N3CCOCC3)cc2)CC1`, the Potency was “inactive”. `CC(=O)OCC1OC(OC(C)=O)C(NC(=O)c2cccnc2)C(OC(C)=O)C1OC(C)=O` (stereo unspecified) was tested, and the Potency was “inactive”. In the case of `CC1=Nc2ccccc2/C1=C\c1nc(-c2ccccc2)oc1O`, the Potency is reported as inconclusive: 50.1 µM [inhibitor, partial curve]. With `CCN(CC)c1ccc(NC(=O)c2c(OC)cccc2OC)c(C)c1` the Potency was inconclusive: 56.2 µM [inhibitor, partial curve]. For `CCn1c(=O)c2sccc2n2c(CCCC(=O)N3CCN(c4ccccc4OC)CC3)nnc12`, the Potency was “inactive”. In the case of `COC(=O)CCS(=O)(=O)c1ccc(Cl)cc1`, the Potency is reported as “inactive”. `O=C(N/C(=C\c1ccc([N+](=O)[O-])cc1)C(=O)N1CCCCC1)c1ccccc1Br` was tested, and the Potency was “inactive”. With `CC1=NN(c2ccccc2)C(=O)/C1=C/C=C/c1ccc(N(C)C)cc1` the Potency was active: 2 µM. For `Cc1ccc(OCCCN2CCOCC2)cc1`, the Potency was inconclusive: 89.1 µM [inhibitor, single point]. For `CCOC(=O)N1CCC(NC(=O)c2cnn(-c3cccc(C)c3)c2C2CCN(C(=O)OC(C)(C)C)CC2)CC1`, the Potency was “inactive”.

Reference: PubChem BioAssay AID504333 (National Center for Advancing Translational Sciences (NCATS), 2011)
Also: nearly all actives have a fitted effect of over 60% in size.
Potency is read from the fitted curve at half-maximal effect; tags tell the direction and shape of the fitted curve.
